# From PubChem BioAssay (EPA / NIEHS)
# For some of these results: This list holds what a sample rich in hits left over. Results filed as inconclusive are left out. The list shows a part of the results, in another mix than the full data. Activity calls are given as the source filed them. The calls were made as follows, unless noted: active = hit-call score of the fitted dose curve at least 0.9, where 1 is the maximum; inactive = score below 0.9.
# Key:
# [1] = biological target: Peroxisome proliferator-activated receptor gamma (Homo sapiens) (UniProt P37231); assay: OT_PPARg_PPARgSRC1_1440: Odyssey Thera (OT) 24-hour Protein-Complementation Assay for Peroxisome Proliferator-activated Receptor Gamma/ SRC-1 Co-activator (AID 2283388; active = hit-call score of the fitted dose curve at least 0.9, where 1 is the maximum)
# Sequence of UniProt P37231 (P37231 whole entry, looked up, the tested form may be a part): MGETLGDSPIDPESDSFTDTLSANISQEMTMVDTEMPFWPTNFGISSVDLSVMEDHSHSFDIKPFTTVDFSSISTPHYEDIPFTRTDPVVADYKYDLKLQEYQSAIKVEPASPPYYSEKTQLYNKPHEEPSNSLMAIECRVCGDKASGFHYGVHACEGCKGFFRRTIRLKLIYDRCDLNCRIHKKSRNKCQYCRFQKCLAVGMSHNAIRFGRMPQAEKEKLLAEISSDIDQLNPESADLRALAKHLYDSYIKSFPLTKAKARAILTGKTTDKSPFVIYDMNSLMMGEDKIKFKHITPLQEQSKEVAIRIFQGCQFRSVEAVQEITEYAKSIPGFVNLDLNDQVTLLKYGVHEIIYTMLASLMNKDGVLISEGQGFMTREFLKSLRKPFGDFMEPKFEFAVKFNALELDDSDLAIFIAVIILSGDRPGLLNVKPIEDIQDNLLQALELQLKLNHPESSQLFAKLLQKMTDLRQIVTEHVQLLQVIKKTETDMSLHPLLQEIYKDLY
# Procedure, shortened: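 HEK293T cells transiently transfected with PPARg and SRC-1 fused via (Gly4Ser)2 linker to split Venus YFP fragments (IFP1/IFP2) were dosed 24 h; fixed, Draq5-stained, imaged at 488/635 nm; nuclear/cytoplasmic fluorescence ratio scored versus DMSO baseline, gain-of-signal.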
# [2] = read-out: Forkhead box O3 (FOXO3), FOXO3 (gene 2309); assay: LTEA_HepaRG_FOXO3: Life Technologies and Expression Analysis (LTEA) Assay for Forkhead box O3 (FOXO3) using HepaRG (AID 2283459); conditions: actives raise or lower the signal; mRNA level, 48 h
# Procedure, shortened: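 FOXO3 transcript measured by qRT-PCR (normalized to ACTB, GAPDH, POLR2A) after 48 h exposure of HepaRG cells in serum-free induction medium. Duplicates, eight half-log concentrations up to 100 uM, 0.5% DMSO; gain or loss fitted against DMSO.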
# [3] = read-out: ATP-citrate lyase (ACLY), ACLY (gene 47); assay: LTEA_HepaRG_ACLY: Life Technologies and Expression Analysis (LTEA) Assay for ATP-citrate lyase (ACLY) using HepaRG (AID 2283466); conditions: actives raise or lower the signal; mRNA level, 48 h
# Procedure, shortened: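 ACLY mRNA quantified by qRT-PCR on Fluidigm arrays against three housekeeping genes, after 48 h chemical treatment of HepaRG cells (top concentration 100 uM, half-log steps, 0.5% DMSO vehicle). Up- or down-regulation fitted relative to DMSO.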
# [4] = read-out: Nuclear factor erythroid 2-related factor 2 (Homo sapiens) (UniProt Q16236); assay: LTEA_HepaRG_NFE2L2: Life Technologies and Expression Analysis (LTEA) Assay for Nuclear factor erythroid 2-related factor 2 (NFE2L2) Transcription Factor using HepaRG (AID 2283527); conditions: actives raise or lower the signal; mRNA level, 48 h;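 also: TaqMan qRT-PCR transcript level normalised to ACTB GAPDH and POLR2A housekeeping genes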
# Sequence of UniProt Q16236 (Q16236 whole entry, looked up): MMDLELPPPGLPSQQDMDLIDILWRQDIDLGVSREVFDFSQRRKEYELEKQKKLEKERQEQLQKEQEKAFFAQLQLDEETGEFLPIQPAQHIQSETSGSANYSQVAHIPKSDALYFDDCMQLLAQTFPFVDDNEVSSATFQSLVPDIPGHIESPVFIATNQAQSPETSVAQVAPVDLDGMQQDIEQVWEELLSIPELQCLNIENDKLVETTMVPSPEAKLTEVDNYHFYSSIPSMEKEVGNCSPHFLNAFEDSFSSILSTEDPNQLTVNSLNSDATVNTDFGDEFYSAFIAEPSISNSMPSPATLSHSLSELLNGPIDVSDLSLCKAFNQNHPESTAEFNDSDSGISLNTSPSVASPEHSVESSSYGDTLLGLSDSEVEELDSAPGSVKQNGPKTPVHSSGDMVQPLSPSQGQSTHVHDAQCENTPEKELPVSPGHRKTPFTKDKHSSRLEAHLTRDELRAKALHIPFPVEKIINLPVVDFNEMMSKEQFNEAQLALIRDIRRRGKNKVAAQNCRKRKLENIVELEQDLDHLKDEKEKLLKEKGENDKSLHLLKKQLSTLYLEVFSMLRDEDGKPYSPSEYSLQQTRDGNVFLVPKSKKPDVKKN
# Procedure, shortened: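 NFE2L2 transcript level was read by qRT-PCR (housekeeping ACTB/GAPDH/POLR2A normalisation) after 48 h chemical treatment of HepaRG in serum-free induction medium. Duplicate 8-point half-log curves, top 100 uM, 0.5% DMSO vehicle; up- or down-regulation fitted against vehicle.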
# [5] = ACEA_AR_antagonist_AUC_viability: ACEA Biosciences xCELLigence Real-Time Cell Analysis on Androgen Receptor Antagonism for Viability (AID 2283776; active = hit-call score of the fitted dose curve at least 0.9, where 1 is the maximum;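 also: 22Rv1 human prostate cancer cells growing on impedance electrode plates; area under impedance growth curve at 80 h after dosing as viability; hits lower the growth signal relative to DMSO meaning cytotoxicity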)
# Procedure, shortened: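 Viability endpoint from label-free cell-index monitoring: 22Rv1 cultures treated with an eight-point 1:4 dilution series starting at 100 uM final, AUC at 80 h fitted against DMSO.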
# [6] = biological target: Peroxisome proliferator-activated receptor gamma (Homo sapiens) (UniProt P37231); assay: OT_PPARg_PPARgSRC1_0480: Odyssey Thera (OT) 8-hour Protein-Complementation Assay for Peroxisome Proliferator-activated Receptor Gamma / SRC-1 Co-activator (AID 2283387; active = hit-call score of the fitted dose curve at least 0.9, where 1 is the maximum)
# Procedure, shortened: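 Split-YFP (IFP1/IFP2) PPARg/SRC-1 reporter, HEK293T, 37 °C, 5% CO2; 8 h compound; formaldehyde fix + Draq5; high-content imaging, N/C ratio, ≥350 cells/image, positive direction vs DMSO.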
# [7] = CCTE_Shafer_MEA_dev_bursting_electrodes_number: CCTE's Neural Network Formation Assay for Number of Bursting Electrodes, Shafer Lab (AID 2284043; active = hit-call score of the fitted dose curve at least 0.9, where 1 is the maximum)
# Procedure, shortened: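 Number of electrodes reaching ≥1 burst every 2 min was recorded at DIV 5, 7, 9 and 12 and collapsed as trapezoidal area under the curve. Cultures were rat cortical neurons on MEA plates, dosed continuously from plating with medium and treatment refreshed on DIV 5 and 9.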
# [8] = read-out: Fatty acid synthase (Homo sapiens) (UniProt P49327); assay: LTEA_HepaRG_FASN: Life Technologies and Expression Analysis (LTEA) Assay for Fatty Acid Synthase (FASN) using HepaRG (AID 2283448); conditions: actives raise or lower the signal; mRNA level, 48 h
# Sequence of UniProt P49327 (P49327 whole entry, looked up): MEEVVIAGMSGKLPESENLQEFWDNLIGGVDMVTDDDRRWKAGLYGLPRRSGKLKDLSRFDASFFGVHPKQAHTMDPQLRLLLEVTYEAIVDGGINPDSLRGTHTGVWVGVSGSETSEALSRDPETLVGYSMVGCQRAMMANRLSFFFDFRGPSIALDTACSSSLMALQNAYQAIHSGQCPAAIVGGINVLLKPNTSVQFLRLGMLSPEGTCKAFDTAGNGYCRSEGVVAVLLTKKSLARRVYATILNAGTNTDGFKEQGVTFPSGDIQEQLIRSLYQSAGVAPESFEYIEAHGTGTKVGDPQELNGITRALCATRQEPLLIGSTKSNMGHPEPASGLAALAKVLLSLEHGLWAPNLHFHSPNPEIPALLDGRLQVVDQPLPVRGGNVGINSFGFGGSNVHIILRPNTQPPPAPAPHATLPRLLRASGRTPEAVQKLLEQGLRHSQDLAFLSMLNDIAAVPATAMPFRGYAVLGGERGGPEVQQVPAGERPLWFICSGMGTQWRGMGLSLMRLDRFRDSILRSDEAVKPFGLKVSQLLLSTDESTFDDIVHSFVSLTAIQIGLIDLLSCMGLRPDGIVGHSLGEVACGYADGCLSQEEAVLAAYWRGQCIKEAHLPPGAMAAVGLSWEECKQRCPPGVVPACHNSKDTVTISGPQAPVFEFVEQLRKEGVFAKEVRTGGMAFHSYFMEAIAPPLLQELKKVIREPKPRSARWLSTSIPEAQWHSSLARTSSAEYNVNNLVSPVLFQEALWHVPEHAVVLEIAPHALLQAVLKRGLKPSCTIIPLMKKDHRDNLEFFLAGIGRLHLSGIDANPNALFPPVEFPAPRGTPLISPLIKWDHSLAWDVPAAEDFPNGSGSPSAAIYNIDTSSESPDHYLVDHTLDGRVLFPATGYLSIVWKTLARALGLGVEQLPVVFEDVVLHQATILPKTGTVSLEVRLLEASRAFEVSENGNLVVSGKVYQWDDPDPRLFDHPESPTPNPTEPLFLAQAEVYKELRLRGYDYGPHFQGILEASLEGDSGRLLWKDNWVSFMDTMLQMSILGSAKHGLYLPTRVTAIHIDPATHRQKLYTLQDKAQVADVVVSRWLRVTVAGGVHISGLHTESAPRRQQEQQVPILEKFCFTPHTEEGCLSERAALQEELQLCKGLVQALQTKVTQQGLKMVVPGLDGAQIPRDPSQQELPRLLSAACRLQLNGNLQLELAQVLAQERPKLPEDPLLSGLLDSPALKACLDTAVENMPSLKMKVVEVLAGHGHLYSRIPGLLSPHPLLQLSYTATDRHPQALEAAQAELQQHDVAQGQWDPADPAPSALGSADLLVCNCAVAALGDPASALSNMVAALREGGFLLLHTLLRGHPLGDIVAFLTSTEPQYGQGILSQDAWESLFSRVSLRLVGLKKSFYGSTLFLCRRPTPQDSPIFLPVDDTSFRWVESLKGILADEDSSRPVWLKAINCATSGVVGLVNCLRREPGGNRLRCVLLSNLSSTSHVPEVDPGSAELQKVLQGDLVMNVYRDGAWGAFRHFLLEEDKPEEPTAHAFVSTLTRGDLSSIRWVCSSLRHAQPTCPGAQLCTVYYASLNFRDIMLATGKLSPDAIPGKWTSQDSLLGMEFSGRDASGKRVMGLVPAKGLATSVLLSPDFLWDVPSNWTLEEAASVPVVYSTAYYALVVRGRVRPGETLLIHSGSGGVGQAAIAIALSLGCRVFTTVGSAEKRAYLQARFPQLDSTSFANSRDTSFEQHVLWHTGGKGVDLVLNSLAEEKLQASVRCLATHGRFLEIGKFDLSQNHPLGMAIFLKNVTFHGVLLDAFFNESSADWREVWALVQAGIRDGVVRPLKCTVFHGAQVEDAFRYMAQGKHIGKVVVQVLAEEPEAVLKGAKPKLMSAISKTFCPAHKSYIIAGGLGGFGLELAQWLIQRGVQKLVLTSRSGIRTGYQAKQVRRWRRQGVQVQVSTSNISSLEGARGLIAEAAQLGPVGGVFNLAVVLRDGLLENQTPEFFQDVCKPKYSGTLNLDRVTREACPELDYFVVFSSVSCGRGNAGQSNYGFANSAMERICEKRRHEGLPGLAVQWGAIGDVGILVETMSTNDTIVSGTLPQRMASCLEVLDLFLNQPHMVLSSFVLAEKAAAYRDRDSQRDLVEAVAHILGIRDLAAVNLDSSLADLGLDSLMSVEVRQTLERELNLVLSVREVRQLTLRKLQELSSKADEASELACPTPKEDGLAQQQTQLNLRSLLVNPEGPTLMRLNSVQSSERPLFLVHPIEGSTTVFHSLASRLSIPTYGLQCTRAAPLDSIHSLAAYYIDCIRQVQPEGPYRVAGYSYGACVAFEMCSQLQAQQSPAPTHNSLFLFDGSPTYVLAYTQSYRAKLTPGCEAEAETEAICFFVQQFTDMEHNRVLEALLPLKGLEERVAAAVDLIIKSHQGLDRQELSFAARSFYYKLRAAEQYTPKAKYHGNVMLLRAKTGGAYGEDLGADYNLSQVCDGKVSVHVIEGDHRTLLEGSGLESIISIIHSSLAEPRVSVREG
# Procedure, shortened: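 Cells were plated, cultured 48 h, switched to serum-free induction medium, then dosed in duplicate (max 100 uM, half-log dilutions, 0.5% DMSO) for 48 h. RNA was then isolated and FASN quantified by qRT-PCR.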
# [9] = read-out: Cytochrome P450 (CYP1A2), CYP1A2 (gene 1544); assay: LTEA_HepaRG_CYP1A2: Life Technologies and Expression Analysis (LTEA) Assay for Cytochrome P450 (CYP1A2) using HepaRG (AID 2283479); conditions: actives raise or lower the signal; mRNA level, 48 h
# Procedure, shortened: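 Differentiated human HepaRG cells in serum-free induction medium were exposed in duplicate for 48 h to 8-point half-log concentrations up to 100 uM in 0.5% DMSO. CYP1A2 mRNA measured by qRT-PCR, normalized to ACTB, GAPDH, POLR2A; bidirectional fit vs DMSO.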
# [10] = CEETOX_H295R_DOC: CeeTox H295R High-throughput Steroidogenesis Assay for DOC (AID 2283439); conditions: actives raise or lower the signal
# Procedure, shortened: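 Steps: seed H295R, adhere overnight; 10 uM forskolin 48 h; replace with chemical medium (0.1% DMSO) 48 h; collect medium, MTBE extraction, HPLC-MS/MS for DOC. Viability then checked by MTT; cytotoxic chemicals diluted until viability ≥70%.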
# [11] = CEETOX_H295R_ESTRADIOL: CeeTox H295R High-throughput Steroidogenesis Assay for Estradiol (AID 2283440); conditions: actives raise or lower the signal;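 also: estradiol secreted into medium quantified by LC-MS/MS after dansyl derivatisation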
# Procedure, shortened: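 H295R adrenocortical cells were prestimulated with 10 uM forskolin for 48 h, then exposed to test chemical in 0.1% DMSO for 48 h. Medium estradiol was extracted with MTBE, dansyl-derivatized and quantified by HPLC-MS/MS; bidirectional fit versus DMSO.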
# [12] = CEETOX_H295R_ESTRONE: CeeTox H295R High-throughput Steroidogenesis Assay for Estrone (AID 2283441); conditions: actives raise or lower the signal
# Procedure, shortened: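 Estrone secreted into medium quantified by LC-MS/MS after dansyl chloride derivatization, following 48 h chemical exposure (0.1% DMSO final) of forskolin-prestimulated (10 uM, 48 h) H295R cells; gain or loss fitted against DMSO; MTT viability in same wells.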
# [13] = CEETOX_H295R_MTT_cell_viability: Viability Assessment in the CeeTox HT-H295R MTT Assay (AID 2283718)
# [14] = read-out: ABC Transporter (ABCB11), ABCB11 (gene 8647); assay: LTEA_HepaRG_ABCB11: Life Technologies and Expression Analysis (LTEA) Assay for ABC Transporter (ABCB11) using HepaRG (AID 2283463); conditions: actives raise or lower the signal; mRNA level, 48 h
# Procedure, shortened: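 ABCB11 transcript levels quantified by TaqMan qRT-PCR against three housekeeping genes after 48 h chemical exposure of HepaRG cultures. Concentrations up to 100 uM in half-log steps, 0.5% DMSO vehicle; both induction and suppression scored.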
# [15] = read-out: Cytochrome P450 (CYP24A1), CYP24A1 (gene 1591); assay: LTEA_HepaRG_CYP24A1: Life Technologies and Expression Analysis (LTEA) Assay for Cytochrome P450 (CYP24A1) using HepaRG (AID 2283478); conditions: actives raise or lower the signal; mRNA level, 48 h
# Procedure, shortened: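 Differentiated HepaRG cells, pre-cultured 48 h, were exposed in duplicate for 48 h in serum-free induction medium to 8 half-log concentrations (top 100 uM, 0.5% DMSO). CYP24A1 mRNA was quantified by TaqMan qRT-PCR, normalized to ACTB/GAPDH/POLR2A, fitted bidirectionally versus DMSO.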
# [16] = read-out: Thyroid Hormone Responsive (THRSP), THRSP (gene 7069); assay: LTEA_HepaRG_THRSP: Life Technologies and Expression Analysis (LTEA) Assay for Thyroid Hormone Responsive (THRSP) using HepaRG (AID 2283536); conditions: actives raise or lower the signal; mRNA level, 48 h
# Procedure, shortened: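 THRSP transcript quantified by Fluidigm qRT-PCR against three housekeeping genes after 48 h chemical exposure of HepaRG cells in serum-free induction medium; eight-point half-log series, top 100 uM, 0.5% DMSO vehicle, duplicate wells.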
structure (smiles),measurement,setting,value
O=S(=O)(O)c1cccc2ccccc12,outcome,[1],inactive
O=[N+]([O-])C(CO)(CO)CO,outcome,[2],inactive
same,outcome,[3],inactive
same,outcome,[4],inactive
same,outcome,[5],inactive
CC(CCl)OP(=O)(OC(C)CCl)OC(C)CCl (stereo unspecified),outcome,[6],inactive
same,outcome,[7],inactive
CCO[Si](CCCNC(N)=O)(OCC)OCC,outcome,[8],inactive
same,outcome,[9],inactive
CC(C)=CCCC(C)=CC=O,outcome,[10],inactive
same,outcome,[11],inactive
same,outcome,[12],inactive
same,outcome,[13],inactive
CC(C)c1cccc(C(C)C)c1,outcome,[14],inactive
same,outcome,[15],inactive
same,outcome,[16],inactive
